Test results as given in the supplement of paper PMC4604168 (melanoma cell lines).
Some of the results follow. Repeats are few or missing, and single values can be far off.

system: MEL-HO; assay: cell count relative to DMSO control; melanoma cells; higher = more viable cells; conditions: library dose: low library concentration; 72 h
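Note: cell number obtained by counting DAPI-stained nuclei in high-throughput microscope images with image analysis software, screen run in 1,536-well plates.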

| SMILES | cell count |
| --- | --- |
| C#Cc1cccc(Nc2ncnc3cc(OCCOC)c(OCCOC)cc23)c1 [erlotinib] + C/C(O)=C(\C#N)C(=O)Nc1cc(Br)ccc1Br [LFM-A13] (first compound 0.8 µM, partner dose 2 µM) | 85.3% |
| Oc1nc(-c2ccc(C(F)(F)F)cc2)nc2c1CSCC2 + O=C(Oc1ccc([N+](=O)[O-])cc1)N1CCC(C(O)(c2ccc3c(c2)OCO3)c2ccc3c(c2)OCO3)CC1 [JZL184] (first compound 2 µM, partner dose 1 µM) | 84% |
| C[C@@H]1CCN(C(=O)CC#N)C[C@@H]1N(C)c1ncnc2[nH]ccc12 + Cc1cc(SCc2sc(-c3ccc(C(F)(F)F)c(F)c3)nc2C)ccc1OCC(=O)O [GW0742] (first compound 1 µM, partner dose 2 µM) | 105% |
| COc1cc2ncnc(Nc3ccc(Oc4ccccc4)cc3)c2cc1OC + O=C(Oc1ccc([N+](=O)[O-])cc1)N1CCC(C(O)(c2ccc3c(c2)OCO3)c2ccc3c(c2)OCO3)CC1 [JZL184] (first compound 2 µM, partner dose 1 µM) | 102% |
| C[C@@H]1CCN(C(=O)CC#N)C[C@@H]1N(C)c1ncnc2[nH]ccc12 + C/C(O)=C(\C#N)C(=O)Nc1cc(Br)ccc1Br [LFM-A13] (first compound 1 µM, partner dose 2 µM) | 117% |
| COCC[n+]1c2c(n(Cc3cnccn3)c1C)C(=O)c1ccccc1C2=O + C/C(O)=C(\C#N)C(=O)Nc1cc(Br)ccc1Br [LFM-A13] (first compound 0.0004 µM, partner dose 2 µM) | 101% |
| Cc1cc(Nc2cc(N3CCN(C)CC3)nc(Sc3ccc(NC(=O)C4CC4)cc3)n2)n[nH]1 [Tozasertib] + N.N.[Cl][Pt][Cl] [cisplatin] (first compound 0.006 µM, partner dose 1.6 µM) | 89.5% |
| COc1cc2ncnc(Nc3ccc(Oc4ccccc4)cc3)c2cc1OC + C/C(O)=C(\C#N)C(=O)Nc1cc(Br)ccc1Br [LFM-A13] (first compound 2 µM, partner dose 2 µM) | 87.7% |
| O=C(O)C(=O)Nc1sc2c(c1C(=O)O)CCNC2 + O=C(Oc1ccc([N+](=O)[O-])cc1)N1CCC(C(O)(c2ccc3c(c2)OCO3)c2ccc3c(c2)OCO3)CC1 [JZL184] (first compound 1.66667 µM, partner dose 1 µM) | 85.6% |
| CC(C)C[C@H](NC(=O)[C@H](Cc1ccccc1)NC(=O)c1cnccn1)B(O)O [Bortezomib] + N.N.[Cl][Pt][Cl] [cisplatin] (first compound 0.001 µM, partner dose 1.6 µM) | 105% |
| CC(C)C[C@H](NC(=O)[C@H](Cc1ccccc1)NC(=O)c1cnccn1)B(O)O [Bortezomib] + C[As](C)SC[C@H](NC(=O)CC[C@H](N)C(=O)O)C(=O)NCC(=O)O [Darinaparsin] (first compound 0.001 µM, partner dose 0.4 µM) | 110% |
| Cc1nc(Nc2ncc(C(=O)Nc3c(C)cccc3Cl)s2)cc(N2CCN(CCO)CC2)n1 [dasatanib] + C/C(O)=C(\C#N)C(=O)Nc1cc(Br)ccc1Br [LFM-A13] (first compound 0.004 µM, partner dose 2 µM) | 80.8% |
| Cn1c(Nc2ccc(C(F)(F)F)cc2)nc2cc(Oc3ccnc(-c4ncc(C(F)(F)F)[nH]4)c3)ccc21 + O=C(Oc1ccc([N+](=O)[O-])cc1)N1CCC(C(O)(c2ccc3c(c2)OCO3)c2ccc3c(c2)OCO3)CC1 [JZL184] (first compound 0.08 µM, partner dose 1 µM) | 76.3% |
| C#Cc1cccc(Nc2ncnc3cc(OCCOC)c(OCCOC)cc23)c1 [erlotinib] + C[As](C)SC[C@H](NC(=O)CC[C@H](N)C(=O)O)C(=O)NCC(=O)O [Darinaparsin] (first compound 0.8 µM, partner dose 0.4 µM) | 96.9% |
| Nc1ccn([C@@H]2O[C@H](CO)[C@@H](O)C2(F)F)c(=O)n1 [gemcitabine] + C[As](C)SC[C@H](NC(=O)CC[C@H](N)C(=O)O)C(=O)NCC(=O)O [Darinaparsin] (first compound 0.0004 µM, partner dose 0.4 µM) | 71.3% |
| COc1cc(N2CCC(N3CCN(C)CC3)CC2)ccc1Nc1ncc(Cl)c(Nc2ccccc2S(=O)(=O)C(C)C)n1 + O=C(Oc1ccc([N+](=O)[O-])cc1)N1CCC(C(O)(c2ccc3c(c2)OCO3)c2ccc3c(c2)OCO3)CC1 [JZL184] (first compound 0.08 µM, partner dose 1 µM) | 90.8% |
| Cn1c(Nc2ccc(C(F)(F)F)cc2)nc2cc(Oc3ccnc(-c4ncc(C(F)(F)F)[nH]4)c3)ccc21 + C/C(O)=C(\C#N)C(=O)Nc1cc(Br)ccc1Br [LFM-A13] (first compound 0.08 µM, partner dose 2 µM) | 80.5% |
| CO[C@H]1C[C@@H]2CC[C@@H](C)[C@@](O)(O2)C(=O)C(=O)N2CCCC[C@H]2C(=O)O[C@H]([C@H](C)C[C@@H]2CC[C@@H](OCCO)[C@H](OC)C2)CC(=O)[C@H](C)/C=C(\C)[C@@H](O)[C@@H](OC)C(=O)[C@H](C)C[C@H](C)/C=C/C=C/C=C/1C [everolimus] + C[As](C)SC[C@H](NC(=O)CC[C@H](N)C(=O)O)C(=O)NCC(=O)O [Darinaparsin] (first compound 0.02 µM, partner dose 0.4 µM) | 72.9% |
| C=CCn1c(=O)c2cnc(Nc3ccc(N4CCN(C)CC4)cc3)nc2n1-c1cccc(C(C)(C)O)n1 + O=C(Oc1ccc([N+](=O)[O-])cc1)N1CCC(C(O)(c2ccc3c(c2)OCO3)c2ccc3c(c2)OCO3)CC1 [JZL184] (first compound 0.02 µM, partner dose 1 µM) | 98.8% |
